Results: US20260199426A1, “CYCLIC LIPOPEPTIDE ANTIBIOTIC COMPOUNDS FOR USE IN THE TREATMENT OF PROTEIN AGGREGATION DISEASE” (DEUTSCHES ZENTRUM FÜR NEURODEGENERATIVE ERKRANKUNGEN E. V., priority 2022, published 2026)
*1 amine or outer side, *2 acyl side, *3 side chain or, on linkers, in order; H or OH if unused. Where a SMILES comes first, the peptide text is derived from it. Bridges are numbered along the chain shown (N, C = ends). [ ]: non-standard residue; d: D form. The star is where a group is joined. ξ: configuration not given here. X2 = O=C(C(N[*:1])c1ccc(OC2OC(CO)C(O)C(O)C2OC2OC(CO)C(O)C(O)C2O)cc1)[*:2]; Octa(2Z,4E)dienoyl(7-Me) = CC(C)C/C=C/C=C\C(=O)*; ξPhg(3-Cl-4-OH) = NC(C(=O)O)c1ccc(O)c(Cl)c1; X1 = NC(=O)C(O[*:3])C(N[*:1])C(=O)[*:2]; Hpg = N[CH](C(=O)O)c1ccc(O)cc1; Orn = NCCC[CH](N)C(=O)O

Molecular target: 2N4R Tau (Homo sapiens, UniProt P10636)
Test: Seeded Tau aggregation assay (ThT fluorescence, TEM of the fibrils formed)
Settings: mole ratios of 1:3, 1:5, and 1:10 vs Reference

Compound: CC(C)C/C=C/C=C\C(=O)NC(CC(N)=O)C(=O)NC1C(=O)NC(c2ccc(O)cc2)C(=O)NC(CCCN)C(=O)NC(C(C)O)C(=O)NC(c2ccc(O)cc2)C(=O)NC(c2ccc(O)cc2)C(=O)NC(C(C)O)C(=O)NC(Cc2ccccc2)C(=O)NC(CCCN)C(=O)NC(c2ccc(OC3OC(CO)C(O)C(O)C3OC3OC(CO)C(O)C(O)C3O)cc2)C(=O)NC(C(C)O)C(=O)NC(c2ccc(O)cc2)C(=O)NCC(=O)NC(CC(C)C)C(=O)NC(C)C(=O)NC(c2ccc(O)c(Cl)c2)C(=O)OC1C(N)=O (stereo not shown) [Ramoplanin A2] ({Octa(2Z,4E)dienoyl(7-Me)}-N[X1][Hpg][Orn]T[Hpg][Hpg]TF[Orn][X2]T[Hpg]GLA[ξPhg(3-Cl-4-OH)]; ester 2-C; configuration not given here)
- span of the fluorescence curves: significantly lower span values
